Consider 16 cell lines from the supplement of paper PMC4967469.

Holding throughout (test): Viability of human cancer cell lines after 72 h of drug (GDSC screen)
Compound in one test: CO[C@@H]1[C@H](N(C)C(=O)c2ccccc2)C[C@H]2O[C@]1(C)n1c3ccccc3c3c4c(c5c6ccccc6n2c5c31)C(=O)NC4 [Midostaurin]
The settings on record: top dose 0.512 µM; top dose inferred. As to the method:
(§1)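 Human cancer cell lines in 384-well plates, medium with 10% serum, drug for 72 h over a 256-fold dose range (nine 2-fold or five 4-fold steps up to the top dose). Adherent lines were fixed and stained with the nucleic acid dye Syto60, suspension lines read with resazurin; signal relative to control wells, capped at 0 and 100%. One two-parameter sigmoid per drug and line, fitted in a mixed model over all curves with the slope shared within a line.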

Compound in another test: COc1cc(Nc2c(C#N)cnc3cc(OCCCN4CCN(C)CC4)c(OC)cc23)c(Cl)cc1Cl [Bosutinib]
The settings on record: top dose 2 µM. As to the method: as §1

Compound in the next test: Cc1ccc(C(=O)Nc2cccc(C(F)(F)F)c2)cc1Nc1nc(-c2cccnc2)nc2c1cnn2C [NVP-BHG712]
The settings on record: top dose 10.24 µM; top dose inferred. How it is done: as §1

Compound in the next test: O=C(O)CNC(=O)c1c(O)c2ccccc2n(Cc2ccccc2)c1=O [IOX2]
The settings on record: top dose 0.1 µM; top dose inferred. As to the method: as §1

Lines with a small IC50 respond at low doses; fits outside the tested doses are given as limits. AUC, from the same fit, is the share of area under the viability curve across the 256-fold dose range; it is 1 without any effect and falls as sensitivity rises. For some of these results: An inferred top dose was calculated from the reported fits.

With TMK-1 (stomach, adherent), the AUC with Midostaurin was 0.942; with Bosutinib it was 0.919; in the test with NVP-BHG712 it was 0.986; with IOX2, 0.961. In addition, the 50% inhibitory concentration (IC50) with Midostaurin was over 512 nM; with Bosutinib, over 2000 nM; with NVP-BHG712 it was over 10.2 µM; with IOX2 it was over 100 nM.
For the cell line CAL-62 (thyroid, adherent), the AUC was 0.888 with Midostaurin, 0.859 in the test with Bosutinib, 0.932 with NVP-BHG712 and 0.94 with IOX2. Further, the IC50 with Midostaurin was over 512 nM; with Bosutinib it was 1540 nM; with NVP-BHG712, over 10.2 µM; in the test with IOX2, over 100 nM.
In the case of COLO-205 (large intestine, suspension), the AUC in the test with Midostaurin worked out at 0.743; with Bosutinib, 0.962; in the test with NVP-BHG712, 0.849; with IOX2 it was 0.986. Also, the IC50 with Midostaurin was 157 nM; with Bosutinib, over 2000 nM; in the test with NVP-BHG712, 7.5 µM; in the test with IOX2, over 100 nM.
As for “NCI-H661 (large cell lung carcinoma, adherent)”, the AUC with Midostaurin came to 0.926; with Bosutinib, 0.85; in the test with NVP-BHG712, 0.914; with IOX2 it was 0.98. The 50% inhibitory concentration (IC50) is over 512 nM with Midostaurin, over 2000 nM in the test with Bosutinib, over 10.2 µM with NVP-BHG712 and over 100 nM in the test with IOX2.
LOXIMVI (melanoma, semi-adherent): the values for the AUC with Midostaurin, in the test with NVP-BHG712 and with IOX2 were 0.953, 0.906 and 0.989, respectively. For the same cell line, the half-inhibitory concentration (IC50) was over 512 nM with Midostaurin, over 10.2 µM with NVP-BHG712 and over 100 nM with IOX2.
A431 (skin, adherent): the AUC was 0.715 in the test with Midostaurin, 0.878 with Bosutinib, 0.876 with NVP-BHG712 and 0.965 in the test with IOX2. The IC50 with Midostaurin is 126 nM; in the test with Bosutinib it was 1880 nM; with NVP-BHG712 it was 9.42 µM; in the test with IOX2, over 100 nM.
For HSC-3 (head and neck, adherent), the AUC is 0.886 in the test with Midostaurin, 0.976 with NVP-BHG712 and 0.989 in the test with IOX2. The IC50 was 424 nM with Midostaurin, over 10.2 µM with NVP-BHG712 and over 100 nM in the test with IOX2.
Take SNU-182 (liver, adherent): the AUC worked out at 0.885 in the test with Midostaurin, 0.902 with Bosutinib, 0.933 with NVP-BHG712 and 0.985 in the test with IOX2. The IC50 is over 512 nM with Midostaurin, over 2000 nM in the test with Bosutinib, over 10.2 µM with NVP-BHG712 and over 100 nM with IOX2.
Take HSC-2 (head and neck, adherent): the AUC in the test with Midostaurin was found to be 0.805; with Bosutinib, 0.918; with NVP-BHG712 it was 0.975; with IOX2, 0.964. Moreover, the half-inhibitory concentration (IC50) in the test with Midostaurin is 234 nM; with Bosutinib, over 2000 nM; in the test with NVP-BHG712, over 10.2 µM; in the test with IOX2, over 100 nM.
Turning to Daoy (medulloblastoma, adherent), the AUC turned out to be 0.919 with Midostaurin, 0.941 with Bosutinib, 0.98 with NVP-BHG712 and 0.988 with IOX2. For the same cell line, the IC50 was over 512 nM with Midostaurin, over 2000 nM with Bosutinib, over 10.2 µM with NVP-BHG712 and over 100 nM with IOX2.
Consider KP-3 (pancreas, adherent), for which the AUC in the test with Midostaurin turned out to be 0.86; with Bosutinib, 0.899; with NVP-BHG712 it was 0.869; with IOX2, 0.962. Also, the 50% inhibitory concentration (IC50) in the test with Midostaurin was over 512 nM; with Bosutinib, over 2000 nM; with NVP-BHG712 it was over 10.2 µM; with IOX2, over 100 nM.
With SW1710 (bladder, adherent), the AUC with Midostaurin stood at 0.717; with Bosutinib it was 0.916; with NVP-BHG712 it was 0.836; with IOX2, 0.982. The IC50 in the test with Midostaurin is 135 nM; in the test with Bosutinib, over 2000 nM; with NVP-BHG712, 7.1 µM; in the test with IOX2 it was over 100 nM.
Turning to SU-DHL-10 (B-cell lymphoma, suspension), the AUC in the test with Midostaurin amounted to 0.828; with NVP-BHG712, 0.651; with IOX2 it was 0.997. The results for the IC50 in the test with Midostaurin, with NVP-BHG712 and with IOX2 were 202 nM, 1.48 µM and over 100 nM, respectively.
In the case of “P12-ICHIKAWA (T-cell lymphoblastic leukaemia, suspension)”, the AUC with Midostaurin was 0.9; in the test with Bosutinib, 0.994; with NVP-BHG712, 0.908; in the test with IOX2 it was 0.994. Besides, the IC50 with Midostaurin was 390 nM; with Bosutinib it was over 2000 nM; with NVP-BHG712, 8.42 µM; in the test with IOX2, over 100 nM.
SNU-61 (large intestine, adherent): the AUC with Bosutinib was found to be 0.941; with NVP-BHG712, 0.912; in the test with IOX2 it was 0.979. The half-maximal inhibitory concentration (IC50) with Bosutinib is over 2000 nM; with NVP-BHG712 it was over 10.2 µM; with IOX2 it was over 100 nM.
On to “EMC-BAC-2 (lung adenocarcinoma, adherent)”, for which the AUC with Bosutinib came to 0.874; with NVP-BHG712, 0.978; in the test with IOX2 it was 0.974. In addition, the IC50 with Bosutinib is over 2000 nM; with NVP-BHG712 it was over 10.2 µM; with IOX2, over 100 nM.

As a reminder, the IC50 is the concentration at which inhibition is half-maximal.
